Reference: PubChem BioAssay (NCI)
“And” between values parts separate entries of the source, which are not always exact repeats. Equal values may be shown once.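 Cells were grown in 96-well plates and exposed to each compound for 48 hours at five concentrations; endpoints were interpolated linearly between bracketing concentrations, or set to the highest concentration if not reached. Here, GI50 denotes the concentration required for 50% inhibition of growth. TGI marks complete inhibition of growth.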

These molecules were tested on NCI-H322M lung (assay: DTP human tumour cell line panel, 48 h).

Compound	GI50	TGI [µM]
COC(=O)[C@@H](C)C[C@H](Cc1ccccc1)NC(=O)c1csc([C@@H](C[C@H](C(C)C)N(C)C(=O)[C@@H](NC(=O)[C@H]2CCCN2C)C2CC2)OC(C)=O)n1	0.00424 µM and 0.0025 µM	> 25
C/C(=C\C(=N\NC(=N)N)c1ccccc1)c1ccccc1	–	2.25
CCCCCCCCCCOCCOCCOCCOCCCCC(O)CCCCCCCC1=C[C@H](C)OC1=O (stereo partly drawn)	–	33.4
O=C1C=C(c2ccccc2)O/C1=C\C(=O)c1ccc(Cl)cc1	–	> 100
CN(C)c1ccc(/C=C(\NC(=O)c2ccccc2)C(=O)Nc2cccc(C(=O)NCCCO)c2)cc1	–	> 100
CN(C)CCS(=O)(=O)Nc1cc(-c2ccc3ncc(C#N)c(Nc4ccc(F)c(Cl)c4)c3c2)cnc1Cl	0.29 µM	0.975
O=S(=O)(c1cc(Cl)ccc1Cl)N1CCN(c2cccc(Cl)c2)CC1	–	> 100
NC(=O)CCSC(CC(=O)c1ccc(Cl)cc1)c1ccc(Cl)cc1 (stereo not drawn)	–	> 100
O=c1[nH]c2cc([N+](=O)[O-])c(N/N=C/c3ccc(Cl)cc3Cl)c([N+](=O)[O-])c2[nH]1	–	57.5
CCOC(=O)c1sc2nc1CSc1sc(=S)sc1SCc1nc(sc1C(=O)OCC)-c1nc(c(C(=O)OCC)s1)CSc1sc(=S)sc1SCc1nc-2sc1C(=O)OCC	–	> 10
CC(C(=O)n1ccnc1)N1c2ccccc2Sc2ccccc21 (stereo not drawn)	–	> 100
O=C(CN=C(CN(c1ccccc1)c1ccccc1)Oc1ccc(Cl)cc1Cl)n1ccnc1	–	> 100
C=CC1(c2ccc3ccccc3c2)OCC(CC)O1 (stereo not drawn)	–	> 100
CC/C=C\C[C@H](O)C/C=C1/C(=O)C=C[C@@H]1C/C=C\CCCCO	4.09 µM	15.4
C/C=C(\C)C(=O)O[C@H]1C=CC(=O)O[C@H]1COC(=O)[C@H](C)O	12.9 µM	26.8
CCCC(=O)OC[n+]1ccc(-c2c(COC(=O)NC(C)C)c(COC(=O)NC(C)C)c3n2CCC3)cc1	–	> 100
Cc1ccccc1C(C(=O)NC1CCCCC1)N(C(=O)CNc1ccc(C#N)cc1)c1cccc(F)c1 (stereo not drawn)	> 96.6 µM	> 100
CC1(C)CCCCCCCCCC2CC2CCC(C)(C)C1=O (stereo not drawn)	–	48.2
COc1ccc(-c2nc3c(C(=O)NCCN(C)C)cccc3c3ccccc23)cc1	–	23
CC(=Nc1ccc(Cl)c(Cl)c1)c1ccncc1	–	> 100
CC(=O)Nc1cc2nc3n(c2cc1C)CCC3OC(C)=O (stereo not drawn)	–	> 100
CC(=O)NC1COC(COC(=O)CCCCCCCCCCNC(=O)c2ccc([N+](=O)[O-])c3c(=O)c4ccccc4[nH]c23)C(O)C1OC(C)C(=O)NC(C(=O)NC(CCC(N)=O)C(=O)OCc1ccccc1)C(C)C (stereo not drawn)	–	25

Compound	GI50	TGI [µM]
Cc1cccc(Cl)c1NC(=O)c1cnc(Nc2cc(N3CCOCC3)cc(S(C)(=O)=O)c2)s1	0.465 µM	> 7.93
COC(=O)c1oc2c(C(=O)/C=C/c3ccc(OC)cc3)c(OCCN3CCOCC3)ccc2c1C	2.49 µM	8.51
COc1ccc(-c2cn(-c3cc(OC)c(OC)c(OC)c3)c(=O)[nH]2)cc1OC	> 100 µM	> 100
CC(C)(C)[Si](C)(C)OCC1OC(n2ccc(=O)[nH]c2=O)C(O[Si](C)(C)C(C)(C)C)[C@]12O[C@@H]2CO (stereo partly drawn)	–	36.7
COc1cc(/C=C2\N=C(c3ccccc3)N(c3nc4ccc(Sc5ccccc5)cc4[nH]3)C2=O)cc(OC)c1OC	–	> 100
O=C1c2c(Cl)c(Cl)c(Cl)c(Cl)c2C(=O)C2(Cl)CC=CCC12Cl (stereo not drawn)	2.21 µM	4.72
CN(C)C=Nc1c(I)cc(I)c(CCC(=O)O)c1I	> 100 µM	> 100
O=S(=O)(CCC[C@H]1[C@@H](CCOCc2ccccc2)C2CCCN1O2)c1ccccc1 (stereo partly drawn)	–	> 100
C=C1c2nc3ccccc3n2C=C(c2ccc(Cl)cc2)N1c1ccc(OCCN2CCCCC2)cc1	10.7 µM	> 100
O=C(O)CCN(CCCN(CCC(=O)O)CCC(=O)O)CCC(=O)O	–	> 100
Cc1ccc(C2=Nc3ccccc3S(=O)C(c3ccc4c(c3)OCO4)C2)cc1 (stereo not drawn)	–	> 100
COc1cc(CCC(=O)NC[C@@H](O)c2ccccc2)ccc1O	> 100 µM	> 100
CC(=O)NNc1nc(C)c(C(=O)/C=C/c2ccc(Cl)c(Cl)c2)s1	–	> 100
CC1=C(C(=O)CC(=O)C(=O)Nc2ccc(C)c(C)c2)Sc2ccccc2N1	–	> 100
NC(=O)CCC(NC(=O)c1c2ccccc2nc2ccccc12)C(=O)O (stereo not drawn)	–	> 100
CCCc1cn2c(/C=N/N=C(N)N)c(-c3ccc(Cl)c([N+](=O)[O-])c3)nc2s1	–	3.23
Cc1ccccc1Nc1nc(NNC(=O)Cc2ccccc2)nc(NNC(=O)c2ccncc2)n1	–	> 10
CN(C)CCOc1ccccc1NC1=C(Cl)C(=O)C(Nc2ccccc2OCCN(C)C)=C(Cl)C1=O	22.7 µM	> 62.7
CC(C)C(=O)c1c(C(F)(F)F)n([O-])c2ccccc2[n+]1=O	2.77 µM	11.2
Cc1ccc(C(=O)Oc2ccc(/C=C3\CCC/C(=C\c4ccc(OC(=O)c5ccc(C)cc5)cc4)C3=O)cc2)cc1	–	> 100
CCOC(=O)/C(=C\NC(C)(C)CO)c1nc2ccccc2[nH]1	–	> 100
CN1NC(c2ccccc2)=C(C#N)C(=O)CC1c1ccc(F)cc1 (stereo not drawn)	–	> 100

Compound	GI50	TGI [µM]
NCCSC(c1ccccc1)(c1ccccc1)c1ccccc1	0.545 µM	7.9
COc1ccc(NC(=O)c2ccc(NC3=C(Cl)C(=O)N(Cc4ccccc4)C3=O)cc2)c(OC)c1	27.4 µM	98.2
COc1cc(CNc2cnc3ccc(N)cc3n2)cc(OC)c1OC	–	> 100
COc1cc(C2CC(=O)Nc3c2c(C)nn3-c2nc3ccccc3[nH]2)cc(OC)c1O (stereo not drawn)	4.48 µM	38.9
Cc1cc2c(cc1Cl)SC(c1ccccc1O)NS2(=O)=O (stereo not drawn)	–	> 100
C=C1CC2C3C=C(C)C4=CC(=O)CC[C@]4(C)C3CC[C@]2(C)[C@@]1(OC(C)=O)C(C)=O (stereo partly drawn)	> 100 µM	> 100
CCC1CCC2c3c([nH]c4ccc(C)cc34)C3C(=O)N(N(C)C)C(=O)C3C2C1 (stereo not drawn)	–	> 100
CN(C)Cc1c(C(=O)NCCOc2ccc(C(=O)NO)cc2)oc2ccccc12	0.359 µM	> 100
C(#CC1(Nc2ccccc2)CCN(Cc2ccccc2)CC1)C1(Nc2ccccc2)CCN(Cc2ccccc2)CC1	–	> 31.6
O=[N+]([O-])c1oc2ccc3ccccc3c2c1CCO	–	11.5
O=C(O)c1ccc([C@@H]2C(=O)N(O)[C@@H]3C=CC[C@@H]32)cc1	–	> 100
CNC(=O)c1cccc(C#Cc2cncnc2Nc2ccc(OCc3cccc(F)c3)c(Cl)c2)c1	3.08 µM	19.7
Cc1ccc(-c2nnc3s/c(=C\c4ccc(N(C)C)cc4)c(=O)n23)cc1	–	> 100
COc1ccc2c(c1)CCCc1c-2nc2ccccc2c1N	–	22.3
O=C1[C@@H](O)[C@@H]2CCCC[C@@]23CCCN13	–	> 100
O=C(Nc1cccc(C(=O)NCCCO)c1)/C(=C/c1ccccc1)NC(=O)c1ccccc1	–	> 100
Cc1cc(S(=O)(=O)NC(=NCCc2ccccc2)NN)c(S)cc1Cl	–	93
CC1=N[C@@](C)(C2CC3C=CC2C3=O)COC1=O (stereo partly drawn)	–	> 100
C=CCOC(=O)Nc1cccn([C@H](CC(C)C)C(=O)NCCC(C)C)c1=O	> 100 µM	> 100
CC(=O)OCCCC#CC#Cc1cccc(=O)o1	19.2 µM	33.6
O=C1C(=O)N(c2ccc(Cl)cc2)C(=O)C(=Nc2cccc3c(=O)[nH][nH]c(=O)c23)C1c1nc2ccccc2o1 (stereo not drawn)	–	> 100
COC(=O)C1[C@H](c2ccc3c(c2)OCO3)OC(=O)[C@]1(C(=O)OC)C(=O)c1ccc(OC)c(OC)c1 (stereo partly drawn)	–	> 100
